Reference: PubChem BioAssay AID1508624 (National Center for Advancing Translational Sciences (NCATS), 2021)
About 120 (0.25%) of roughly 48,000 compounds were called active. About 4% were inconclusive and are not listed. Calls follow the shape of the dose curve; as a rule, active = well fitted activation curve with a large enough effect; inconclusive = small, poorly fitted or top-dose-only effect, or another doubt; inactive = no such curve, though single readings can be large or run the other way. Some of the results follow.

test: Primary qHTS for Identification of Small Molecule Activators of Huntingtin-Antisense Promoter Activity; conditions: HEK293 HTT-AS promoter firefly luciferase reporter, 24 h; series mostly up to 57.5 µM; activity change, positive = activation: at the top concentration; also: nearly all actives have a fitted effect of over 55% in size
Summary of the method: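 Luminescence was read after Dual-Glo reagent and a 10 min room-temperature incubation. Values were normalized to vehicle (0% activity) and zero RLU (-100% activity). Reporter HEK293 cells had been exposed to compounds (up to 57.5 uM final) for 24 h.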

Activity change, positive = activation, inactive:
COc1cc2ncnc(Nc3cccc(Br)c3)c2cc1OC -33.5%, COCCN1C(=O)N(c2cccc(OC)c2)C(=O)C1CC(=O)Nc1ccccc1 (centres undefined) -18%, O=C(NCc1ccc(Cl)cc1)C(=O)NCC(c1ccc2c(c1)OCO2)N1CCOCC1 (centres undefined) -17.8%, COc1cc2ccccc2cc1C(=O)N1CCN(c2nc3c(F)cccc3s2)CC1 8.89%, CCCCc1nn2c(=O)cc(COC(=O)c3cccc(NC(=O)c4cccs4)c3)nc2s1 3.68%, Cn1c(COc2ccccc2C(C)(C)C)nc2ccccc21 -37.7%, COc1ccc(S(=O)(=O)c2cc3cc(C(C)(C)C)cc(O)c3oc2=O)cc1 -15.1%, CCCCCn1c(=N)c(S(=O)(=O)c2ccc(C)cc2)cc2c(=O)n3cc(C)ccc3nc21 1.71%, CC(C)(CC(=O)NCc1ccc(Cl)cc1Cl)CC1=NS(=O)(=O)c2ccccc2N1 -59.6%, COC(=O)c1ccc(NS(=O)(=O)c2ccc3c(c2)n(C)c(=O)c(=O)n3C)cc1 -13.9%, CCOC(=O)c1ccc(CN(Cc2ccc(F)cc2)S(=O)(=O)c2ccc(F)c(C(=O)Nc3ccccc3C(F)(F)F)c2)cc1 -13.4%, Cn1c2c(c(=O)n(C)c1=O)C(c1ccccc1C(F)(F)F)CC(=O)N2 (centres undefined) -14.1%, CCNC(=O)CC1C(=O)N(c2ccc(F)cc2)C(=O)N1Cc1ccc(OC)c(OC)c1 (centres undefined) -7.93%, Cc1ccc(C(=O)N2CCN(c3cccc(Cl)c3)CC2)cc1-n1c(C)nc2cccnc21 -20%, O=C(c1ccc2c(c1)N(Cc1cccc(Cl)c1)C(=O)c1ccccc1S2(=O)=O)N1CCc2ccccc21 -22.4%, CCc1ccccc1N(CC)C(=O)C(=O)Nc1ccc2nc3n(c(=O)c2c1)CCCCC3 -17.8%, COc1cc(Cl)c(C)cc1NC(=O)C1CCCN(c2ncnc3onc(-c4ccc(F)cc4)c23)C1 (centres undefined) -23%, COc1ccc(-n2c(SC)nc3sc4c(c3c2=O)CCN(C(C)=O)C4)cc1 -12.6%, FC(F)(F)c1cccc(N2CCN(c3nc4ccccc4n4cnnc34)CC2)c1 -34.3%, Cc1ccc(NC(=O)CSc2nnc(-c3cc4occc4n3C)n2-c2ccccc2C)c(C)c1 -35.9%, COc1ccc(CNC(=O)C2CCN(C(=O)c3cnn(-c4ccccc4)c3-n3cccc3)CC2)cc1 -43.8%, c1ccc(-c2ccc(C(c3ccccc3)n3ccnc3)cc2)cc1 (centres undefined) -8.33%, Oc1c(Cl)cc(Cl)c2cccnc12, Cc1ccc2c(c1)N(C(=O)Nc1ccc(Br)cc1F)CCO2 -10.3%, Cc1ccn2c(=O)cc(COc3ccc(NC(=O)C(C)(C)C)cc3)nc2c1 -4.44%, COC(=O)c1ccccc1NC(=O)CSc1n[nH]c(C)n1 6.43%, CCS(=O)(=O)N1CCc2cc(C(=O)NC(C)c3ccccc3)ccc21 (centres undefined) -8.72%, CC(C)Oc1ccc(CNC(=O)CN2C(=O)c3cccnc3Oc3ccc(Cl)cc32)cc1 -30.7%, O=c1c2sc3ccccc3c2n(Cc2cccc(C(F)(F)F)c2)c(=O)n1-c1ccccc1 -29.1%, CCCCN(C)CCNC(=O)c1cc(=O)[nH]c2ccc(S(=O)(=O)N3CCCCCC3)cc12 0%, Cc1cc(NC(=O)c2ccc(-c3ccc(Cl)cc3)o2)cc(-c2nc3ncccc3o2)c1O -3.55%, Cc1ccc(CNC(=O)c2cnc(N(C)C)nc2)cc1 -8.01%, COc1ccc(NC(=O)c2oc3ccccc3c2NC(=O)c2cc(=O)c3c(C)cc(C)cc3o2)cc1 -1.79%, Cc1nc(-n2nc(C)c(Cc3ccccc3Cl)c2C)sc1C(=O)N1CCCCC1C (centres undefined) -11.6%, COc1ccc(-c2nc(C(=O)Nc3cccc(C(C)=O)c3)nn2-c2ccc(Cl)cc2)cc1 -14.4%, O=S(=O)(c1ccc2ccccc2c1)n1nc(-c2ccco2)nc1NCc1ccc(F)cc1 -8.11%, Cc1cc(NC(=O)CCCn2c(C)c3cnn(-c4ccccc4)c(=O)c3c2C)ccc1Br -32.8%, CCOc1ccccc1NC(=O)CN1C(=O)CC(c2ccco2)Sc2ccccc21 (centres undefined) -41%, Cc1cc(C)cc(C(=O)N(Cc2nc(-c3ccc(Cl)cc3)no2)C(C)C)c1 -25.1%, COCCNC(=O)C(=O)NCC(c1ccc2c(c1)OCO2)N1CCOCC1 (centres undefined) -10.7%, COC(=O)c1ccc(OCC(O)Cn2cnc3cc(C)c(C)cc32)cc1 (centres undefined) -10.4%, CCN(C(=O)CSc1ncc(S(=O)(=O)c2ccc(C)c(Cl)c2)c(=O)[nH]1)c1cccc(C)c1 -13.8%, COCCCNC(=O)c1cc2n(n1)CCCN(Cc1ccc(C)cc1)C2=O 3.98%, CC(=O)SC[C@@H](C)C(=O)N1CCC[C@H]1C(=O)N[C@@H](Cc1ccccc1)C(=O)O -7.32%, CC[C@H](C)[C@H](N)C(=O)O 1.66%, COc1ccc(OC)c(NC(=O)c2cc3c(s2)-c2ccccc2SC3)c1 7.99%, Cc1c(NS(=O)(=O)c2cccc(C(=O)O)c2)c(=O)n(-c2ccccc2)n1C 11.5%, COc1ccccc1-c1c(C)nn2c(N3CCN(c4cccc(Cl)c4)CC3)cc(C)nc12 -12.5%, O=C(CSc1nnc(CNC(=O)c2c(F)cccc2Cl)o1)Nc1ccccc1F -2.19%, CCC(=O)N1c2ccccc2CC1C(=O)NCc1ccccc1C (centres undefined) -6.47%, CS(=O)(=O)c1ncc(N(Cc2ccco2)Cc2ccco2)c(C(=O)Nc2ccccc2Br)n1 -22.7%, Cc1ccc(-n2ncc(C(=O)NC3CCCC3)c2C2CCN(C(=O)OC(C)(C)C)CC2)c(C)c1 -17%, CC1=C(C(=O)OCc2ccc(C)cc2)C(c2c(Cl)cccc2Cl)CC(=O)N1 (centres undefined) -20.8%, Cc1ccc(C)c(NS(=O)(=O)c2ccc3c4c(cccc24)C(=O)N3)c1 -65.1%, CNc1nc(Oc2ccc(=O)n(C)n2)nc(N2CCOCC2)n1 -1.16%, COc1cccc(Cn2nnc3c(=O)[nH]c(C4CCCN(C(=O)c5ccc(C)cc5)C4)nc32)c1 (centres undefined) -28.7%, NC(=O)[C@@H]1CSSCCC(=O)N[C@@H](CCCCN=C(N)N)C(=O)NCC(=O)N[C@@H](CC(=O)O)C(=O)N[C@@H](Cc2c[nH]c3ccccc23)C(=O)N2CCC[C@H]2C(=O)N1 0.284%, CCOc1ccccc1NC(=O)CC1C(=O)NCCN1C(=O)c1ccc(F)cc1 (centres undefined) -4.12%, COc1ccc(OC)c(Nc2nc3ccccc3n3c(C)nnc23)c1 -4.36%, COc1ccc(-c2nc(CN3CCC(C(=O)NCCCN4CCN(c5ccccc5F)CC4)CC3)c(C)o2)cc1OC -13.9%, O=C(Nc1cc(-c2nc3cc(Cl)ccc3o2)ccc1Cl)c1cccs1 -5.43%, COc1ccc(COC(=O)c2[nH]c3c(c2C)C(=O)CC(c2ccc(OC)c(OC)c2)C3)cc1 (centres undefined) -74%, C#CC(C)(CC)NC(=O)Cn1nnc(-c2ccc(OCc3ccccc3F)cc2)n1 (centres undefined) -12.7%, CN(C1CCCCC1)S(=O)(=O)c1ccc2c(c1)c(=O)c(C(=O)NCCc1ccc(Cl)cc1)cn2C 3.19%, CSCCC(NS(=O)(=O)c1ccc2c(c1)oc(=O)n2C)C(=O)NCCc1ccc(C)cc1 (centres undefined) -9.45%, Cc1ccc(-c2nnc(Nc3cccc(Cl)c3)c3ccccc23)cc1S(=O)(=O)NCC1CCCO1 (centres undefined) -2.26% [at 11.5 µM, percent change from vehicle, -100% = no light], CCS(=O)(=O)N1CCC(C(=O)NCCC(C)C)CC1 -4.82%, COc1cccc(OCCCCn2c(-c3ccc(Cl)cc3)nc3ccccc3c2=O)c1 -13.4%, Cc1ccc(-c2onc(C)c2C)cc1S(=O)(=O)NCc1ccco1 -24.4%, O=S(=O)(NCCSc1nnnn1-c1ccccc1)c1ccc(F)cc1 -16.8%, O=c1[nH]cnc2nc[nH]c12 5.36%, CC(=O)Nc1ccc(S(=O)(=O)NC2(C(F)(F)F)NC(=O)N(c3ccc(C)cc3)C2=O)cc1 (centres undefined) -3.9%, O=C(c1cccc([N+](=O)[O-])c1)N1c2ncnn2C2(CCCCC2)[C@@H]2CCCC[C@@H]21 -29.4%, Cc1ccc(S(=O)(=O)c2cnc(SCC(=O)Nc3ccc4c(c3)OCCO4)[nH]c2=O)cc1 -5.66%, CC(C)(C)c1ccc(O)c(O)c1 -38.8% [at 116 µM, percent change from vehicle, -100% = no light], Cn1c(SCC(=O)N2CCCc3ccccc32)ncc(C(=O)Nc2ccc(Cl)cc2)c1=O 7.33%, COc1cccc(CN(Cc2ccco2)c2cnc(S(C)(=O)=O)nc2C(=O)Nc2cccc(Cl)c2C)c1 -25.7%, CCc1nc2nc(C)cc(Nc3ccc(OC)cc3)n2n1 -14.8%, COc1ccccc1Nc1nn2c(=O)c3ccc(C(=O)NCc4cccs4)cc3nc2s1 -34.2%, COc1ccc(-c2cn3c(n2)sc2cc(C(=O)NCc4ccccc4OC)ccc23)cc1 29.4%, COC(=O)c1cc(S(=O)(=O)NCC2CCN(Cc3cc(C)ccc3C)CC2)c[nH]1 -6.26%, Cc1ccc2c(=O)c(C(=O)c3ccc(F)cc3)cn(CC(=O)NCc3ccccc3)c2n1 -8.87%, COc1cccc(Cn2c(CNC(=O)C(C)C)nc3cccnc32)c1 -5.71%, COc1ccc(OC)c(S(=O)(=O)NCCc2sc(-c3ccc(C)cc3)nc2C)c1 -12.6%, COc1ccc(N2CCN(C(=O)c3ccc(C)c(NC(=O)c4nsc5ccccc45)c3)CC2)cc1 20.2%, CCOC(=O)c1c(NC(=O)/C=C/c2ccccc2)sc2c1CCCC2 -4.92%, COc1ccc(C(=O)Nc2ccc(-c3nc4ncccc4o3)cc2)cc1 12.8%, CC(C)(C)OC(=O)N1CCC(c2c(C(=O)NCc3ccccn3)cnn2-c2ccccc2)CC1 -8.52%, Cc1ccc(S(=O)(=O)c2cnc(SCC(=O)Nc3cc(C)cc(C)c3)nc2N)cc1 -40%, Cc1cccc(OCc2ccc(-c3nc(C#N)c(NCCN(C)C)o3)o2)c1 -7.4%, Cc1cc(Nc2ccc(C)c(C)c2)n2cnnc2n1 -4.23%, COc1ccc2c(c1)c1c(c(=O)n(-c3ccccc3C)c(=O)n1CC(=O)NCc1ccc(C)cc1)n2C -29.1%, COC(=O)c1ccccc1NC(=O)Cn1cc(S(=O)(=O)Cc2ccccc2F)c2ccccc21 -44.2%, CCOC(=O)c1c(C)oc2nc(C)nc(NCc3ccccc3Cl)c12 -5.91%
